These results are taken from article PMC4081100.

What all share (assay): universal protein binding microarray (PBM)
Common to all, as to details: transcription factors of Arabidopsis thaliana; high values mean tight binding; most listed sequences are background and not binding sites; double strand, one strand shown

The target in assay [1] is GST-NTL6(1-168) (UniProt Q9SCK6).
For assay [2], the target named is T1, GST-ANAC055(1-171) (UniProt Q9LDY8).
T1 sequence: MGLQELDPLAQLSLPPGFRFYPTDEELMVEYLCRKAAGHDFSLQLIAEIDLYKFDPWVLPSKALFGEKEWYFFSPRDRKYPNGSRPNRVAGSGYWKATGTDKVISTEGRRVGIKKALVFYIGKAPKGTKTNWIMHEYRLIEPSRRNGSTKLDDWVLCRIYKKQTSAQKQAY

Assay [3] deals with T2, GST-ATAF1 NAC domain (UniProt Q39013).
T2 sequence: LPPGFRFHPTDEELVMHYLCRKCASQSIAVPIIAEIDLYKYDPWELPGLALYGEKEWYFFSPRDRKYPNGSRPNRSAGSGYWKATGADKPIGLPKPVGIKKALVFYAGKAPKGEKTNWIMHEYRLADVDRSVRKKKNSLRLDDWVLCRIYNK

The target of assay [4] is T3, GST-ANAC092(1-285) full length (UniProt Q9FKA0).
T3 sequence: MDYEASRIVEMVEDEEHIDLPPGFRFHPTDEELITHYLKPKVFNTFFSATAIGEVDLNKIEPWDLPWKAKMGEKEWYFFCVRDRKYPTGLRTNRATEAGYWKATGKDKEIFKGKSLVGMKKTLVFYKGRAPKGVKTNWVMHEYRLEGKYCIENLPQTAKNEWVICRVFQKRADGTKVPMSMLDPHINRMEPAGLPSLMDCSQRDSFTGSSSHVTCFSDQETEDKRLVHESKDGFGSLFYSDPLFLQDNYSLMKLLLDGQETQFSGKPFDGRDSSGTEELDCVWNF

Assay [5] has as its target T4, GST-NST2(1-184) (UniProt Q9M274).
T4 sequence: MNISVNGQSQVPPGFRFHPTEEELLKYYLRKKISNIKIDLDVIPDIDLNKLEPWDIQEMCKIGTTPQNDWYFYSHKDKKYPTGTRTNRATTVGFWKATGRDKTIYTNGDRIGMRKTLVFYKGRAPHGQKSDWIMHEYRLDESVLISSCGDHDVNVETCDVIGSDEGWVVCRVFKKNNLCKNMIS

The target of assay [6] is T5, GST-NTL8 NAC domain (UniProt Q9XIN7).
T5 sequence: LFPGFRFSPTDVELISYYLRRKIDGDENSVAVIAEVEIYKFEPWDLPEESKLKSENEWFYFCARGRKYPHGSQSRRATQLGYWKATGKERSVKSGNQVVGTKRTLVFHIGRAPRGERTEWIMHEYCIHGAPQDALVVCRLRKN

Assay [7] has as its target T6, GST-SND1(1-203) (UniProt Q9LPI7).
T6 sequence: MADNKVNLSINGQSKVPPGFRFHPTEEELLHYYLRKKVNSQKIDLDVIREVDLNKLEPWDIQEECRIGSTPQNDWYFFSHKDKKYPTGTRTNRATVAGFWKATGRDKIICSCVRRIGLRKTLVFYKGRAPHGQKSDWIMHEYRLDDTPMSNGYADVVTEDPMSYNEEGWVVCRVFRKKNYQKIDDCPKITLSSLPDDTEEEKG

Assay [8] addresses T7, GST-VND3 NAC domain (UniProt Q9FH59).
T7 sequence: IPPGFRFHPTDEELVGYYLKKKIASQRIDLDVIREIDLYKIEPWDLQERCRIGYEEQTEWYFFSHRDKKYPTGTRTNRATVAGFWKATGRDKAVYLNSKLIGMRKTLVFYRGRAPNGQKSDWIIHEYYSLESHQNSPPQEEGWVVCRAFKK

Assay [9] addresses T8, GST-VND7 NAC domain (UniProt Q9C8W9).
T8 sequence: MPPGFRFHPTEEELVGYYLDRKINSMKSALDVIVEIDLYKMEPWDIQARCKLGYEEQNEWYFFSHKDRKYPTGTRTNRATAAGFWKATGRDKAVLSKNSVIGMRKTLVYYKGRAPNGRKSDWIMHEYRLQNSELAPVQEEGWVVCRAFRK

For assay [10], the target named is T9, GST-VOZ2 (Arabidopsis thaliana) (UniProt Q9SLB9).
T9 sequence: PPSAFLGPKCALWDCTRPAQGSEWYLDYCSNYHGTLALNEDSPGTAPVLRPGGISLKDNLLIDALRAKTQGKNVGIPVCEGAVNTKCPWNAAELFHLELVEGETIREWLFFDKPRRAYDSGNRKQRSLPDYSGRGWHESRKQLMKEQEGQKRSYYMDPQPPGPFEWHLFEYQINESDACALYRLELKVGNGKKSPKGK

In assay [11] the target is T10, GST-NAP(1-166) (UniProt O49255).
T10 sequence: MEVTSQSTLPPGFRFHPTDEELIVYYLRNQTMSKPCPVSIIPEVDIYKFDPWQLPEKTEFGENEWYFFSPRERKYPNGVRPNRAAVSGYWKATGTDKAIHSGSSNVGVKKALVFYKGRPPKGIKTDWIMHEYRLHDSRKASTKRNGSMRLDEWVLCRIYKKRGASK

Assay [12] concerns the target T11, GST-ANAC092(1-176) (UniProt Q9FKA0).
T11 sequence: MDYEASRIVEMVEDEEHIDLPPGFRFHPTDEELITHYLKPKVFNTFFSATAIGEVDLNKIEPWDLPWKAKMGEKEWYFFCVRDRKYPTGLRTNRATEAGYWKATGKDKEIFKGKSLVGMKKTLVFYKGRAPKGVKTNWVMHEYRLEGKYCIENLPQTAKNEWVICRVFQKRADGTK

The target in assay [13] is T12, GST-ANAC019 NAC domain (UniProt Q9C932).
T12 sequence: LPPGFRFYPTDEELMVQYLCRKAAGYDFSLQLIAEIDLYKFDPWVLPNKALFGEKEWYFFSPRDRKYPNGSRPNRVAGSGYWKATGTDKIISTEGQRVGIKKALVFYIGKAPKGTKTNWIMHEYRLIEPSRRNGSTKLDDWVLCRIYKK

In assay [14] the target is GST-WRKY1(266-371) (UniProt Q9SI37).

The list shows a part of the results, in another mix than the full data. For some of these results: At the low end of the ranking the order means little. This is one part of the list. For some of these results: The source does not settle which construct or isoform was used.

As for CCCTTGAC, the binding signal in assay [1] is 0.0561 E-score; in [2], -0.00834 E-score; in assay [3], -0.0458 E-score; in assay [4], -0.004 E-score; in [5], -0.0221 E-score; in assay [6] it was 0.151 E-score. The binding signal in assay [7] was 0.0155 E-score; in assay [8], 0.0223 E-score; in [9] it was -0.0368 E-score; in assay [10], -0.039 E-score.

For the sequence AGTCAAGG, the binding signal was 0.0196 E-score in assay [1]; -0.00357 E-score in [2]; 0.0036 E-score in assay [3]; 0.0507 E-score in assay [11]; 0.0876 E-score in assay [5]; 0.0248 E-score in assay [6]. The binding signal was 0.0282 E-score in assay [7], -0.0657 E-score in assay [8], -0.0219 E-score in assay [9] and -0.0668 E-score in assay [10].

Consider AGTCAAAT, for which the binding signal is -0.159 E-score in assay [12]; -0.0477 E-score in assay [1]; -0.0206 E-score in assay [13]; 0.049 E-score in assay [2]; -0.0264 E-score in assay [4]; -0.0727 E-score in assay [5]. In addition, the binding signal in [6] was -0.127 E-score; in assay [7] it was -0.109 E-score; in assay [8], 0.0244 E-score; in assay [10] it was 0.105 E-score; in [14], 0.476 E-score.

For ATTCCCTC, the binding signal is 0.0415 E-score in [12]; 0.115 E-score in assay [1]; 0.0664 E-score in assay [13]; -0.147 E-score in assay [2]; 0.00766 E-score in [3]; -0.181 E-score in [4]. The binding signal in assay [11] is 0.0176 E-score; in [5], -0.0671 E-score; in [7] it was -0.0243 E-score; in [8] it was 0.00175 E-score; in assay [10], 0.134 E-score; in [14] it was -0.0495 E-score.

As for ATAAGTAA, the binding signal is 0.0139 E-score in assay [13]; 0.181 E-score in assay [2]; 0.0431 E-score in assay [11]; 0.311 E-score in assay [7]; 0.264 E-score in [8]; 0.213 E-score in assay [10].

Turning to AGGTCAGC, the binding signal was -0.0713 E-score in assay [12]; 0.0243 E-score in assay [1]; 0.00933 E-score in assay [13]; -0.127 E-score in [2]; -0.00783 E-score in [3]; -0.171 E-score in assay [4]. The binding signal in [11] is -0.0481 E-score; in [5], -0.0962 E-score; in assay [6] it was 0.0375 E-score; in assay [7], -0.0926 E-score; in assay [8], -0.0376 E-score; in [10], -0.0806 E-score.

As for GCATTGAC, the binding signal was -0.0593 E-score in [1]; 0.0256 E-score in assay [13]; 0.0486 E-score in assay [2]; 0.00675 E-score in assay [4]; -0.00861 E-score in assay [11]; 0.0561 E-score in [5]. The binding signal in [6] was -0.0912 E-score; in [7] it was -0.0839 E-score; in assay [8], 0.0107 E-score; in assay [9], -0.069 E-score; in [10], 0.125 E-score.

Turning to ATTACGTC, the binding signal in assay [1] was -0.00629 E-score; in assay [13], 0.329 E-score; in assay [6] it was 0.00209 E-score; in [7], 0.432 E-score; in [8] it was 0.37 E-score; in [10] it was 0.104 E-score.

In the case of AAAGGTCA, the binding signal is 0.0429 E-score in assay [1]; -0.0273 E-score in assay [13]; 0.106 E-score in assay [2]; -0.171 E-score in [11]; 0.0387 E-score in assay [5]; 0.154 E-score in assay [6]. For the same sequence, the binding signal was -0.00997 E-score in [7], 0.0202 E-score in assay [8], -0.0014 E-score in [9] and 0.0101 E-score in assay [10].

As to AGTCAAAG, the binding signal in assay [12] was -0.0305 E-score; in assay [1], 0.0118 E-score; in assay [13], 0.0319 E-score; in [2], 0.0286 E-score; in [3] it was 0.0213 E-score; in assay [4] it was -0.0713 E-score. Further, the binding signal in [11] is -0.1 E-score; in [5] it was -0.0795 E-score; in [6] it was 0.0881 E-score; in assay [7] it was 0.0189 E-score; in assay [8] it was -0.0433 E-score; in assay [10], -0.0144 E-score. Besides, the binding signal in assay [14] was determined as 0.486 E-score.

Turning to CGACACGC, the binding signal in assay [1] is -0.0982 E-score; in [13], 0.246 E-score; in assay [3], 0.188 E-score; in [11], 0.194 E-score; in assay [5], -0.0184 E-score; in [6], -0.0321 E-score. The binding signal was 0.134 E-score in assay [7], 0.138 E-score in assay [8], -0.0672 E-score in [10] and 0.021 E-score in assay [14].

For GTCAAATA, the binding signal in assay [12] was -0.0279 E-score; in [13], -0.0586 E-score; in assay [3] it was 0.141 E-score; in [4] it was 0.0439 E-score; in assay [5] it was -0.0507 E-score; in assay [6], -0.204 E-score. The binding signal in [7] was -0.0022 E-score; in [8] it was 0.0795 E-score; in assay [10] it was 0.0597 E-score; in [14], 0.461 E-score.

On to CAAGCAAG, for which the binding signal turned out to be 0.369 E-score in [12]; 0.0997 E-score in assay [2]; 0.0324 E-score in assay [11]; 0.395 E-score in [7]; 0.0934 E-score in [8]; 0.05 E-score in [10]. The binding signal in [14] is -0.0203 E-score.

Regarding AGAGGGAA, the binding signal in [13] is 0.0124 E-score; in assay [4] it was -0.0523 E-score; in assay [11], 0.111 E-score; in assay [5], 0.0185 E-score; in [7], 0.0321 E-score; in [8], 0.0709 E-score. Further, the figures for the binding signal in assay [10] and in assay [14] were 0.0616 E-score and -0.0525 E-score, respectively.
